Experimental data as given in PubChem BioAssay (NCATS).
Inconclusive results, whose numbers are uncertain, are shown with a selection of clear calls. For part of these data: No potency is given beside an inconclusive call; the fits are too rough. Calls of active or inactive are those of the source. Unless noted, calls come from the whole dose curve; as a rule, active = well fitted curve in the direction sought with a large enough effect; inconclusive = small, poorly fitted or top-dose-only effect, or another doubt; inactive = no such curve, though single readings can be large; an effect the other way counts as inactive or inconclusive.

Experiments:
[1] = target: Rap guanine nucleotide exchange factor 3 (Homo sapiens) (UniProt O95398); assay: Confirmatory qHTS for agonist of cAMP-regulated guanine nucleotide exchange factor 3 (EPAC1) (AID 1645881); settings: EPAC1 Rap1B BODIPY-GDP exchange fluorescence; activation: at 154 µM (top of the series), 100% = cAMP control response; note: nearly all actives have a fitted effect of over 75% in size; note: potency is the fitted concentration of half-maximal effect;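 for activation: EPAC1 catalysed release of BODIPY-GDP from Rap1B seen as fluorescence loss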
Sequence of UniProt O95398 (O95398 whole entry, looked up): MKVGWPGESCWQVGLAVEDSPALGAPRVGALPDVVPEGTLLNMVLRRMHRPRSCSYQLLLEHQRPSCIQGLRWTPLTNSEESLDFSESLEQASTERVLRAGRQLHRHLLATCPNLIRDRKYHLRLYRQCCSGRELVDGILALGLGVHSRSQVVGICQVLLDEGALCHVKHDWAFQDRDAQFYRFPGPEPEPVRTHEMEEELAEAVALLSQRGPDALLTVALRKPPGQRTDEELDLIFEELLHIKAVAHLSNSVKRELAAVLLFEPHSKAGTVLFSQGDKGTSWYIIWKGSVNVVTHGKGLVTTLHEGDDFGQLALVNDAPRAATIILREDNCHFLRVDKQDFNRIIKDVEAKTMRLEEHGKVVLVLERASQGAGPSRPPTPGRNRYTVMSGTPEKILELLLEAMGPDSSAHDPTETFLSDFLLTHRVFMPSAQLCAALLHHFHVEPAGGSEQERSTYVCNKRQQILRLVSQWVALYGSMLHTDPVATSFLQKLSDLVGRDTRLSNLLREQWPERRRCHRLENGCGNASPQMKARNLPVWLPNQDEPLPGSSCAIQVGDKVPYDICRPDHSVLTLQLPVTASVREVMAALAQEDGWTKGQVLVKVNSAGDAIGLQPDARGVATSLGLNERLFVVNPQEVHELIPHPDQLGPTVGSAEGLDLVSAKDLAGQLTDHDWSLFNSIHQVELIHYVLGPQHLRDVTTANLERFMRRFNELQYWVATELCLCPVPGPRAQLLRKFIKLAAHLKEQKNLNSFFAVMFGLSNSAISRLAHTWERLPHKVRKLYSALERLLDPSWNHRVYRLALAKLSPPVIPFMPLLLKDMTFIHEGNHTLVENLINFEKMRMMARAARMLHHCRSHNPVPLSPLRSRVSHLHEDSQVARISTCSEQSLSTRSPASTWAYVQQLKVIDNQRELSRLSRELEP

[2] = target: Rap guanine nucleotide exchange factor 4 (Homo sapiens) (UniProt Q8WZA2); assay: Confirmatory qHTS for agonist of cAMP-regulated guanine nucleotide exchange factor 4 (EPAC2) (AID 1645884);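 note: nucleotide exchange releases bodipy-GDP from Rap1 and this lowers its fluorescence; potency is the fitted concentration of half-maximal effect; nearly all actives have a fitted effect of over 65% in size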
Sequence of UniProt Q8WZA2 (Q8WZA2 whole entry, looked up): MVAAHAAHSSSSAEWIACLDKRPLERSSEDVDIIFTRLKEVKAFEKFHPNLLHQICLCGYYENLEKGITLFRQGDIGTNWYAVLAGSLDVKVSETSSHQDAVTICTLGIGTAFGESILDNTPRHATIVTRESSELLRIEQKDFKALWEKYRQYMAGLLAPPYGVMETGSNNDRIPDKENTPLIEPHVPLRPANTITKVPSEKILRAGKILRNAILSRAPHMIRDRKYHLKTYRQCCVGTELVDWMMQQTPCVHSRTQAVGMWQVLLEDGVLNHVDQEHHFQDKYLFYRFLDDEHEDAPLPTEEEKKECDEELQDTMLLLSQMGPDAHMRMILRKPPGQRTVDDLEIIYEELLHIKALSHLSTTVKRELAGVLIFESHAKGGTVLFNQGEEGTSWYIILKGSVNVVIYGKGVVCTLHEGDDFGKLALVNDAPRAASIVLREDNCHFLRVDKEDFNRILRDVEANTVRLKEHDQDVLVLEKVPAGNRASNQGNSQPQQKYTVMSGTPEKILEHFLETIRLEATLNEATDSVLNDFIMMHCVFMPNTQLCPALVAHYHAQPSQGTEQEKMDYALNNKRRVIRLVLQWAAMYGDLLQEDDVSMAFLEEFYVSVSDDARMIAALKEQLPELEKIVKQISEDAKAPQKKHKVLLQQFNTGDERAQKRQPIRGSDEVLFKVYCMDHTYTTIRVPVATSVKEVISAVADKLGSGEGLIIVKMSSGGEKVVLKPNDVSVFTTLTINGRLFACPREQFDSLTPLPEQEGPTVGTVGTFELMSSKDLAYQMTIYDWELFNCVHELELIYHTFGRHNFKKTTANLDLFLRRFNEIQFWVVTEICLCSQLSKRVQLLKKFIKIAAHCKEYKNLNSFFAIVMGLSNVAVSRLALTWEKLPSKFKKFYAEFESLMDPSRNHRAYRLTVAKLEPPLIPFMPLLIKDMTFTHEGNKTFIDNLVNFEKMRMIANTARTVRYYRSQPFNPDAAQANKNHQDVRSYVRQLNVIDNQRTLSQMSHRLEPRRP

[3] = target: Rap guanine nucleotide exchange factor 3 (Homo sapiens) (UniProt O95398); assay: Counterscreen qHTS for agonist of cAMP-regulated guanine nucleotide exchange factor 3 (EPAC1) (AID 1645889); settings: EPAC1 Rap1B-BODIPY-GDP exchange, fluorescence; activation: at 154 µM (top of the series) unless noted; note: nearly all actives have a fitted effect of over 40% in size; note: potency is the fitted concentration of half-maximal effect; for activation: % of control where 0% means no effect
Outline: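 Measured: fluorescence of BODIPY-GDP bound to Rap1B, which falls as exchange proceeds. Conditions include 50 uM competing GDP, 5 and 30 min reads, and a later cAMP challenge for antagonist detection.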

[4] = target: Tumor susceptibility gene 101 protein (Homo sapiens) (UniProt Q99816); assay: qHTS Assay for Iinhibitors of HIV-1 Budding by Blocking the Interaction of PTAP/TSG101: Hit Validation (AID 651600); note: potency is the fitted concentration of half-maximal effect; nearly all actives have a fitted effect of over 70% in size
Sequence of UniProt Q99816 (Q99816 whole entry, looked up, the tested form may be a part): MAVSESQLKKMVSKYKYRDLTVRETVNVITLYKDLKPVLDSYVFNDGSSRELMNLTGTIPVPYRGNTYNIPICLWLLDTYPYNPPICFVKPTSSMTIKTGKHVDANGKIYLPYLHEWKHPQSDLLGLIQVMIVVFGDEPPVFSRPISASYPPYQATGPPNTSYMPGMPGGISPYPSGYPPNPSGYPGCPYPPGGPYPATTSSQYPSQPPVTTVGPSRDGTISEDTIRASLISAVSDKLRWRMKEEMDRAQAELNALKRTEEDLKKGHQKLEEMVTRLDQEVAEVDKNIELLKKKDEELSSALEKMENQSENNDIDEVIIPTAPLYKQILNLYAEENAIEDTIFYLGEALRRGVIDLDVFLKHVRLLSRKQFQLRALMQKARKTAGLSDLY
Outline: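 FITC-PTAP peptide (50 nM final) binding to Tsg101 binding domain (10 uM final) was measured by polarization after 20 min at r.t. with compounds, in 10 mM HEPES pH 7.5 buffer with 0.15 M NaCl and 0.01% Tween 20.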

[5] = target: Rap guanine nucleotide exchange factor 4 (Homo sapiens) (UniProt Q8WZA2); assay: Confirmatory qHTS for antagonist of cAMP-regulated guanine nucleotide exchange factor 4 (EPAC2) (AID 1645885); settings: activity change, negative = inhibition: at 12.7 µM (top of the series) unless noted; note: nearly all actives have a fitted effect of over 25% in size; note: potency is the fitted concentration of half-maximal effect; for activity change, negative = inhibition: % is set by controls: 0 for no effect and ±100 for the full control effect
[6] = Stat Signaling Pathway (AID 446; active = well fitted curve in either direction with a large enough effect, not every such curve was filed as active; inconclusive = small, poorly fitted or top-dose-only effect, or another doubt;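 note: ME-180 cervical cancer cells given 40 pM IL-6 alongside compound; SIE-controlled beta-lactamase reporter measured as 460/530 nm FRET emission ratio; top concentration of the series differs between compounds; % is set by controls: 0 for no effect and ±100 for the full control effect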); settings: ME-180 SIE beta-lactamase reporter, IL-6 stimulated, 5 h; at 7.69 µM (top of the series) unless noted
Outline: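 Compound effects on IL-6-induced STAT reporter activity were measured in ME-180 cells. After overnight culture, cells were co-treated with 40 pM IL-6 for 5 hrs before beta-lactamase substrate loading at room temperature.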

[7] = target: Mitogen-activated protein kinase 10 (Mus musculus) (UniProt Q61831); assay: JNK3 AlphaScreen Assay (AID 530; active = well fitted curve in either direction with a large enough effect, not every such curve was filed as active; inconclusive = small, poorly fitted or top-dose-only effect, or another doubt;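 note: kinase came from lysate of stimulated human HepG2 cells; signal reports phosphorylation of biotinylated GST-cJun 1-79 at Ser73 with 10 µM ATP; potency is the fitted concentration of half-maximal effect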); settings: JNK3 lysate, c-Jun phosphorylation; activity change, negative = inhibition: at 57.1 µM (top of the series)
Outline: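 Phosphorylation of biotinylated GST-cJun(1-79) at Ser73 is measured by AlphaScreen proximity luminescence. Enzyme is JNK3 in HepG2 lysates activated with interleukin-1beta and tumor necrosis factor alpha; ATP is 10 uM final.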

[8] = target: 3',5'-cyclic-AMP phosphodiesterase 4B (Homo sapiens) (UniProt Q07343); assay: qHTS Assay for Inhibitors of PDE-IV (AID 607; active = well fitted activation curve with a large enough effect in the main read-out, with a control signal flat, not every such curve was filed as active; inconclusive = small, poorly fitted or top-dose-only effect, or effect the other way, or a change in a side signal; note: potency is the fitted concentration of half-maximal effect); settings: HEK293 ACTOne CNG channel cells, membrane potential fluorescence; activation (PDE inhibition): at 22.9 µM (top of the series)
Sequence of UniProt Q07343 (Q07343 whole entry, looked up): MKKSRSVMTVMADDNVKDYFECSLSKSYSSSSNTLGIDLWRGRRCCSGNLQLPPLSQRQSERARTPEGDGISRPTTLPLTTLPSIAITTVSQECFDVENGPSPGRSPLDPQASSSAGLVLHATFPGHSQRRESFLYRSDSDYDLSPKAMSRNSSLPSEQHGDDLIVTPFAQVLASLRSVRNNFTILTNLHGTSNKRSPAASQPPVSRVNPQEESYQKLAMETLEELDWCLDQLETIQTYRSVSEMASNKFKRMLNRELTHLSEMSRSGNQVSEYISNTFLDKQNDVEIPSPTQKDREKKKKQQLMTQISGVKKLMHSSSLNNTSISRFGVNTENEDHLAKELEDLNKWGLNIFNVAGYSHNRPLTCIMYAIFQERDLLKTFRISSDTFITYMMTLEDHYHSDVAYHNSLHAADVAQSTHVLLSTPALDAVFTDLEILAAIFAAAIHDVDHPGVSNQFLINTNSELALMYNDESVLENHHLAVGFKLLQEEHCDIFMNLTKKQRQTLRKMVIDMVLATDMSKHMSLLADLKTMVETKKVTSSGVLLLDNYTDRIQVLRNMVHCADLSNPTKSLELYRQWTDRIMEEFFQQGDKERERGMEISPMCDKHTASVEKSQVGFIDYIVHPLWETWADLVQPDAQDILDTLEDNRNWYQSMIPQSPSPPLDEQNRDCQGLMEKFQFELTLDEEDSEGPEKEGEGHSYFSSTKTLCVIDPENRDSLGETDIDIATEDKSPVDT
Outline: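 ACTOne HEK293 cells carry a modified cAMP-gated CNG channel and express endogenous PDE4; plated 1000 cells/well, compounds up to 22.9 uM final. Membrane-potential dye fluorescence (ex 535/em 590) was read; parental cells received 10 uM forskolin + 100 uM RO 20-1724.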

[9] = qHTS Assay for Identification of Small Molecule Agonists for Hypoxia Response Element Signaling Pathway (AID 914; active = well fitted activation curve with a large enough effect in the signal ratio, with a control signal flat, not every such curve was filed as active; inconclusive = small, poorly fitted or top-dose-only effect, or effect the other way, or a change in a side signal; the % refers to the signal ratio; note: potency is the fitted concentration of half-maximal effect); settings: ME-180 (cervical carcinoma) HRE-bla reporter, beta-lactamase ratio, CoCl2, 17 h; activation: hits give high values
Outline: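 Cells were plated overnight, pin-dosed with compound in a titration series, co-stimulated with EC50 CoCl2 and incubated 17 hours at 37 degrees Celsius. CCF4 substrate was then loaded, and AC50 values came from the 460nm/530nm ratio.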

[10] = target: Cytochrome P450 1A2 (Homo sapiens) (UniProt P05177); assay: p450-cyp1a2 (AID 410; calls by dose curve; note: potency is the fitted concentration of half-maximal effect)
Sequence of UniProt P05177 (P05177 whole entry, looked up): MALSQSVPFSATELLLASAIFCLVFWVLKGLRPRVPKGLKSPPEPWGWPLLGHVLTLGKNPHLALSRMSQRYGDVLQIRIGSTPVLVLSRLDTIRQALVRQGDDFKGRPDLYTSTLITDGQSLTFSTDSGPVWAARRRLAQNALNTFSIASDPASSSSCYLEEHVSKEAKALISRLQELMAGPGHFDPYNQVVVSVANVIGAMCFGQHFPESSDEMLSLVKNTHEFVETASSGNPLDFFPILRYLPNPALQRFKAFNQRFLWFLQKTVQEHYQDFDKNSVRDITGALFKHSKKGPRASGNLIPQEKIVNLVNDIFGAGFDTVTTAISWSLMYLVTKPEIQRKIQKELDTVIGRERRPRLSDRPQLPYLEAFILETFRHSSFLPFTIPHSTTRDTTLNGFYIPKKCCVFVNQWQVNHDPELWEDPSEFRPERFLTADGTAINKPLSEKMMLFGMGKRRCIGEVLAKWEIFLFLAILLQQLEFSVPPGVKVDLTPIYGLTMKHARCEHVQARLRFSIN
Outline: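 Luminescent demethylation readout: Luciferin-ME (100uM, equal to Km) turned over by 20nM CYP1A2 for 60 min at room temperature after NADPH regeneration addition, following 10 min compound preincubation. Normalization used 57 uM furafylline as full inhibition.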

[11] = target: Dual specificity protein kinase CLK4 (Homo sapiens) (UniProt Q9HAZ1); assay: qHTS Assay for Inhibitors of CDC-like Kinase 4 (ADP-Glo Assay) (AID 1771); note: % is set by controls: 0 for no effect and ±100 for the full control effect; nearly all actives have a fitted effect of over 70% in size
Sequence of UniProt Q9HAZ1 (Q9HAZ1 whole entry, looked up): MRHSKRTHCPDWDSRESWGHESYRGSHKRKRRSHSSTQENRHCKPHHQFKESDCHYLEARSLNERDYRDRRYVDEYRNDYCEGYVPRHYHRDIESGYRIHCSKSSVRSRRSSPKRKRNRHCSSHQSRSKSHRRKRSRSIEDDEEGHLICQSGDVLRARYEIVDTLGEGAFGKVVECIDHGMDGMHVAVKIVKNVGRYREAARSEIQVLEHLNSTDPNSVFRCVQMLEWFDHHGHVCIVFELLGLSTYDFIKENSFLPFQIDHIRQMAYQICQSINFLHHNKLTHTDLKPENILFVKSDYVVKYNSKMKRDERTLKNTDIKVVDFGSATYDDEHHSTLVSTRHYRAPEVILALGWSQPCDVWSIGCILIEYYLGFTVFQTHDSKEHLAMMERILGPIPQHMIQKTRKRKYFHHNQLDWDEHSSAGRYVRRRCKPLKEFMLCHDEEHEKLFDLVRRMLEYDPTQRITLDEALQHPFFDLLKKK
Outline: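 ADP production was read by ADP-Glo luminescence after residual ATP depletion, following 1 h room-temperature reaction of 25 nM Clk4, 1 uM ATP and 100 uM RS peptide with MgCl2, EGTA, DTT and Triton X-100.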

[12] = target: Ubiquitin carboxyl-terminal hydrolase 1 (Homo sapiens) (UniProt O94782); assay: Inhibitors of USP1/UAF1: Pilot qHTS (AID 504865);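 note: rhodamine fluorescence freed from ubiquitin-rhodamine substrate followed over time; top concentration of the series differs between compounds; % is set by controls: 0 for no effect and ±100 for the full control effect; nearly all actives have a fitted effect of over 35% in size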
Sequence of UniProt O94782 (O94782 whole entry, looked up): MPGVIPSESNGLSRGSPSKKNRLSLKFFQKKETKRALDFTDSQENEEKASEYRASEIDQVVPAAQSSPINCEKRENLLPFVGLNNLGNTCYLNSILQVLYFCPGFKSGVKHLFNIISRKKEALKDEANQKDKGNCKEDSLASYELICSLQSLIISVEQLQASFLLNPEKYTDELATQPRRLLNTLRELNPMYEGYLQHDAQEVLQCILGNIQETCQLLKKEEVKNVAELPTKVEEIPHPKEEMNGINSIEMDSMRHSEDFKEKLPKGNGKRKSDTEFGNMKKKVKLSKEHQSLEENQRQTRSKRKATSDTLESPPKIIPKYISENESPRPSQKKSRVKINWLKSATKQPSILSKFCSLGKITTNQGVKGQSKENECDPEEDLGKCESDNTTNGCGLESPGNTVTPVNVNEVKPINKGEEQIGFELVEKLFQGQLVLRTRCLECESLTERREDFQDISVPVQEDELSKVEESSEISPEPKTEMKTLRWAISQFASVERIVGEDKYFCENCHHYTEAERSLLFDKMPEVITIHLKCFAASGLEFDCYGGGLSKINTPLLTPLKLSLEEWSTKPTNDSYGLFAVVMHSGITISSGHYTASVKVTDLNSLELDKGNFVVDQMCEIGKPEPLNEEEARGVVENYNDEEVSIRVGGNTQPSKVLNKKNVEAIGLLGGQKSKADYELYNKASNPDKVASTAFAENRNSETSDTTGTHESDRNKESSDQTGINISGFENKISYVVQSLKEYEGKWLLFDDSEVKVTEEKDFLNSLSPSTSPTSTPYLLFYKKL
Outline: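 Deubiquitinase activity followed as kinetic rhodamine fluorescence release from 150 nM Ub-Rho. 1 nM USP1/UAF1 with compound, after 15 min room-temperature preincubation, in HEPES pH 7.8 buffer containing TCEP, EDTA, BSA and Tween-20.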
Tags give direction and shape of the fitted curve or compound fluorescence and quenching.

COc1ccc(OC)c(N=Cc2c(O)c3ccccc3oc2=O)c1
Potency [1]: active: 112 µM
Potency [2]: active: 89.1 µM
Potency [3]: inconclusive [activator, single point]

O=C(N/N=C/c1cccnc1)c1cc(-c2ccccc2OCc2ccccc2)n[nH]1
Potency [1]: inconclusive [activator, partial curve]
Potency [2]: active: 89.1 µM
Potency [3]: active: 25.1 µM

CCSC1=NSC2=NC(=O)/C(=C\c3coc4ccccc4c3=O)C(=N)N12
Potency [4]: inconclusive [inhibitor, full curve]
Potency [1]: inconclusive [activator, partial curve, poor fit]
Potency [2]: inconclusive [activator, single point]
Potency [3]: inconclusive [activator, partial curve, poor fit]

COc1ccc(C(=O)N/N=C/c2ccc3cccc(OCc4ccccc4)c3n2)cc1
Potency [1]: inactive
Potency [5]: inconclusive [inhibitor, single point]
Potency [3]: inconclusive [activator, single point]

COc1cccc(C(=O)c2sc3nc(-c4ccccc4)cc(C(F)(F)F)c3c2N)c1
Potency [1]: inconclusive [activator, partial curve, poor fit]
Potency [5]: inconclusive [inhibitor, partial curve, poor fit]
Potency [3]: active: 56.2 µM

O=C(N=c1ccn(-c2nc3ccccc3nc2NS(=O)(=O)c2ccccc2)cc1)c1ccccc1Cl
Potency [1]: inconclusive [activator, partial curve]
Potency [5]: active: 75.7 µM
Potency [3]: active: 79.4 µM

CC(=O)N1c2ccc(S(=O)(=O)NCCc3ccccc3)cc2CC1C (stereo not given)
Potency [1]: inactive
Potency [5]: inactive

CCC1SC2=NC(C)=C(C(=O)OC)C(c3cccs3)N2C1=O (stereo not given)
Potency [1]: inactive
Potency [5]: inconclusive [inhibitor, partial curve, poor fit]
activation [3]: inactive: 5.87% [at 30.8 µM]

Cc1ccc2oc(C(=O)N3CCCCCC3)c(C)c2c1
Potency [1]: inactive
Potency [5]: inconclusive [inhibitor, full curve, poor fit]
Potency [3]: inactive

CCN(CC)c1ccc2cc(-c3nc(-c4ccccc4F)no3)c(=O)oc2c1
Potency [1]: active: 50.1 µM
Potency [5]: active: 4.78 µM
Potency [3]: inconclusive [activator, full curve, poor fit]

COC(=O)c1cc2oc(C)cc2n1Cc1ccc(C)cc1
activation [1]: inconclusive: 66.5% [activator]
Potency [5]: inconclusive [inhibitor, full curve, poor fit]

O=C(C1=NN(c2ccccc2)C2C(=O)N(c3ccccc3)C(=O)C12)c1ccccc1 (stereo not given)
Potency [1]: inconclusive [activator, partial curve, poor fit]
Potency [5]: inconclusive [inhibitor, single point]
Potency [3]: active: 15.8 µM

CSC1=NSC2=NC(=O)/C(=C\c3coc4ccccc4c3=O)C(=N)N12
Potency [1]: active: 89.1 µM
Potency [5]: active: 16.9 µM
Potency [3]: active: 44.7 µM

CCN(CC)c1ccc2cc(-c3nnc(Nc4ccc(C)cc4)s3)c(=O)oc2c1
Potency [1]: active: 112 µM
Potency [5]: active: 5.36 µM
Potency [3]: inconclusive [activator, partial curve, poor fit]

O=C1CCNc2ccc(-c3ccccc3)cc21
Potency [4]: active: 8.19 µM
Potency [1]: inconclusive [activator, partial curve, poor fit]
Potency [2]: active: 112 µM
Potency [3]: active: 56.2 µM

CN(C)c1ncc2nc(-c3cccs3)c(=O)n(C3CC3)c2n1
activity, negative = inhibition [6]: inconclusive: 53.9% [activator]
Potency [7]: inconclusive [activator, partial curve]
Potency [8]: inconclusive [activator, partial curve]
Potency [9]: active: 3.98 µM
Potency [1]: inconclusive [activator, partial curve]
Potency [2]: active: 19.9 µM

COc1ccccc1/C=C/C=C1\Oc2c(ccc(O)c2CN2CCN(CCO)CC2)C1=O
Potency [1]: active: 100 µM
Potency [5]: active: 84.9 µM
Potency [3]: active: 39.8 µM

CN(C)c1ncc2nc(-c3cccs3)c(=O)n(C[C@H]3CCCO3)c2n1
Potency [10]: active: 1.58 µM
Potency [8]: inconclusive [activator, partial curve]
Potency [11]: inactive
Potency [12]: inactive
Potency [1]: inconclusive [activator, full curve, poor fit]
Potency [2]: inconclusive [activator, single point]
